Hit rate of the full screen: of about 48,000 compounds, about 120 (0.25%) were called active. About 4% were inconclusive and are not listed. Calls come from the whole dose curve; as a rule, active = well fitted activation curve with a large enough effect; inconclusive = small, poorly fitted or top-dose-only effect, or another doubt; inactive = no such curve, though single readings can be large or run the other way. The list shows a part of the results.
Assay: Primary qHTS for Identification of Small Molecule Activators of Huntingtin-Antisense Promoter Activity; note: nearly all actives have a fitted effect of over 55% in size
Settings: HEK293 HTT-AS promoter firefly luciferase reporter, 24 h; series mostly up to 57.5 µM; activity change, positive = activation: at the top concentration
Outline: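 Luminescence was read after Dual-Glo reagent and a 10 min room-temperature incubation. Values were normalized to vehicle (0% activity) and zero RLU (-100% activity). Reporter HEK293 cells had been exposed to compounds (up to 57.5 uM final) for 24 h.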
Potency is the fitted concentration of half-maximal effect.

Question: Which “activity change, positive = activation” value does the source give for `CCOc1ccc(-c2cc(C(=O)NCc3ccccc3)c3c(-c4ccc(CC)cc4)[nH]nc3n2)cc1` here?
Answer: inactive: -1.2%

Question: For `O=C(CC1(O)C(=O)N(CCc2ccccc2)c2ccc(Br)cc21)c1ccccc1O` (stereo not drawn), which “activity change, positive = activation” value is on record?
Answer: inactive: -25.9%

Question: With `Cc1ccccc1Nc1c2c(nc3nncn13)CCC2` as the compound, how does the “activity change, positive = activation” value read?
Answer: inactive: 9.08%

Question: Which “activity change, positive = activation” value does the source give for `COc1ccc(NC(=O)Cc2csc(C)n2)cc1` here?
Answer: inactive: 10.7%

Question: For `CC(C)(C)C(=O)Nc1c(C(=O)N2CCN(c3ccc(F)cc3)CC2)oc2ccccc12`, which “activity change, positive = activation” value is on record?
Answer: inactive: -23.9%

Question: Which “activity change, positive = activation” value does the source give for `CCc1ccc(CNC(=O)CCN2C(=O)COc3ccccc32)cc1` here?
Answer: inactive: -10%

Question: With `Cc1cc(C)cc(NC(=O)Cn2nnc(C(=O)Nc3cc(C)cc(C)c3)c2N)c1` as the compound, how does the “activity change, positive = activation” value read?
Answer: inactive: -18.3%

Question: Which “activity change, positive = activation” value does the source give for `[O-][n+]1cccc(CO)c1` here?
Answer: inactive: -6.69%

Question: Which “activity change, positive = activation” value does the source give for `CCOC(=O)c1cc(-c2ccccc2)n(CCCC(=O)Nc2cccc(Cl)c2C)c1C` here?
Answer: inactive: -22.1%

Question: Which “activity change, positive = activation” value does the source give for `CSc1ccc(CCNC(=O)C(C)n2c(C)c3cnn(-c4ccccc4)c(=O)c3c2C)cc1` (stereo not drawn) here?
Answer: inactive: -22.5%

Question: Which “activity change, positive = activation” value does the source give for `COc1cc(NC(=O)Cn2c(C)cc3ccccc3c2=O)cc(OC)c1OC` here?
Answer: inactive: -4.86%

Question: For `COC(=O)c1cc2oc(C)cc2n1CC(=O)Nc1ccc(C)cc1C`, which “activity change, positive = activation” value is on record?
Answer: inactive: -4.83%

Question: Which “activity change, positive = activation” value does the source give for `O=C(Cn1c(=O)n(Cc2ccccc2)c(=O)c2oc3ccccc3c21)Nc1ccc(Cl)cc1` here?
Answer: inactive: -4.22%

Question: For `Cc1ccc(/C=C/c2onc(C)c2S(=O)(=O)N2CCC(C(=O)N3CCOc4ccccc43)CC2)cc1`, which “activity change, positive = activation” value is on record?
Answer: inactive: -12.3%

Question: Which “activity change, positive = activation” value does the source give for `CC(=O)Nc1cc(C(=O)NCc2ccc(F)cc2Cl)ccc1Sc1ccc(Cl)cc1` here?
Answer: inactive: -39.4%

Question: With `CC(C)c1ccc(NC(=O)c2ccc(NC(=O)CCS(=O)(=O)c3cccs3)cc2)cc1` as the compound, how does the “activity change, positive = activation” value read?
Answer: inactive: -22.2%

Question: With `Cc1ccc(CCNc2nc3c(S(=O)(=O)c4ccc(C)cc4)nnn3c3ccsc23)cc1` as the compound, how does the “activity change, positive = activation” value read?
Answer: inactive: -9.87%

Question: For `COc1cc(CNC(=O)c2cc3n(n2)CCCN(Cc2ccc(C)cc2)C3=O)cc(OC)c1OC`, which “activity change, positive = activation” value is on record?
Answer: inactive: -15.6%

Question: Which activity change, positive = activation does the source give for `Cc1ccc(-c2c3c(=O)n(C)c(=O)n(C)c3c3c(C(F)(F)F)nc4ccccc4n23)cc1` here?
Answer: inactive: 12.9% [at 11.5 µM, percent change from vehicle, -100% = no light]

Question: Which “activity change, positive = activation” value does the source give for `Cc1c(NC(=O)c2sc3c([N+](=O)[O-])cccc3c2Cl)cccc1-c1nc2ccccc2o1` here?
Answer: inactive: 16.9%

Question: With `CCS(=O)(=O)N1CC(=O)N(c2cccc(C)c2C)C(C)(C(=O)NC2CCCCC2)C1` (stereo not drawn) as the compound, how does the “activity change, positive = activation” value read?
Answer: inactive: -0.343%

Question: With `CCOC(=O)c1[nH]c(C)c(CCC(=O)Nc2ccc(N(CC)CC)cc2C)c1C` as the compound, how does the “activity change, positive = activation” value read?
Answer: inactive: -10.6%

Question: With `CCC(=C(c1ccccc1)c1ccc(OCCN(C)C)cc1)c1ccccc1` as the compound, how does the “activity change, positive = activation” value read?
Answer: inactive: -26.2%

Question: Which “activity change, positive = activation” value does the source give for `CCn1cc(S(=O)(=O)c2cc(C)cc(C)c2)c(=O)c2cc(F)c(N3CCC(C)CC3)cc21` here?
Answer: inactive: 2.74%

Question: With `Cc1ccc2nc(-c3ccc(C)c(NC(=O)CSc4ccc(Cl)cc4)c3)oc2c1` as the compound, how does the Potency read?
Answer: active: 6.31 µM

Question: Which “activity change, positive = activation” value does the source give for `CCOc1ccc(N(C(=O)c2ccc(C)cc2)S(=O)(=O)c2ccc3c(c2)n(C)c(=O)n3C)cc1` here?
Answer: inactive: -14.4%

Question: With `Cc1ccc2cccc(NC(=O)c3ccc(-c4cc(Cl)ccc4Cl)o3)c2n1` as the compound, how does the “activity change, positive = activation” value read?
Answer: inactive: -5.74%

Question: For `O=C(NCc1ccc(Cl)cc1)c1cc2ccccc2o1`, which “activity change, positive = activation” value is on record?
Answer: inactive: -11.6%

Question: Which “activity change, positive = activation” value does the source give for `Cc1ccc(C)n1-c1nnc(N2CCCC(C(=O)NCc3ccc(F)cc3)C2)s1` (stereo not drawn) here?
Answer: inactive: -8.11%

Question: With `Cc1ccc(Cl)cc1N1CCN(C(=O)Cn2cnc3nc4c(cc3c2=O)CCCC4)CC1` as the compound, how does the “activity change, positive = activation” value read?
Answer: inactive: -5.98%

Question: For `COc1ccc(OC)c(NC(=O)c2ccc3c(c2)c(C)c(C)n3Cc2ccc(F)cc2)c1`, which “activity change, positive = activation” value is on record?
Answer: inactive: -24.6%

Question: With `CCN(CC)C(=O)Cn1c(=O)n(CCCCCC(=O)NCc2ccccc2Cl)c(=O)c2sccc21` as the compound, how does the “activity change, positive = activation” value read?
Answer: inactive: -10.5%

Question: For `O=C(NCc1cccc(Br)c1)c1cccn1-c1nnc(N2CCCCC2)s1`, which “activity change, positive = activation” value is on record?
Answer: inactive: -25.6%

Question: For `Oc1ccc(Cl)cc1Nc1nc2ccccc2n2cnnc12`, which “activity change, positive = activation” value is on record?
Answer: inactive: -12.1%

Question: Which “activity change, positive = activation” value does the source give for `CCOC(=O)c1ccc(NC(=O)Cc2ccc(-n3c(CC)nc4cccnc43)cc2)cc1` here?
Answer: inactive: -7.63%

Question: Which “activity change, positive = activation” value does the source give for `COc1ccccc1N(Cc1cc2cccc(C)c2[nH]c1=O)C(=O)c1cccc(Cl)c1` here?
Answer: inactive: -42.5%

Question: Which “activity change, positive = activation” value does the source give for `NC(=O)c1cc(S(=O)(=O)N2CCCCC2)cs1` here?
Answer: inactive: -16.1%

Question: Which “activity change, positive = activation” value does the source give for `CCNC(=O)CC1C(=O)N(c2ccc(C)cc2)C(=O)N1Cc1ccc(C)cc1` (stereo not drawn) here?
Answer: inactive: -10.1%

Question: Which “activity change, positive = activation” value does the source give for `O=C(CCS(=O)(=O)c1ccc2c(c1)NC(=O)CO2)Nc1cccc(C(F)(F)F)c1` here?
Answer: inactive: -9.18%

Question: For `COc1ccc(NC(=O)Cn2nnc(C(=O)NCc3ccccc3Cl)c2N)cc1Cl`, which “activity change, positive = activation” value is on record?
Answer: inactive: -20.8%

Question: Which “activity change, positive = activation” value does the source give for `CCC(=O)N1CCc2cc(Br)cc(S(=O)(=O)CCC(=O)NCCc3ccccc3Cl)c21` here?
Answer: inactive: 10.9%

Question: Which “activity change, positive = activation” value does the source give for `CN1CCN(C(c2cccc(Br)c2)c2sc3nc(-c4ccco4)nn3c2O)CC1` (stereo not drawn) here?
Answer: inactive: -22.2%

Question: Which “activity change, positive = activation” value does the source give for `Cc1ccnc(NS(=O)(=O)c2ccc(N)cc2)n1` here?
Answer: inactive: -1.09%

Question: With `CCOc1ccc(-c2nonc2NC(=O)c2ccc(C)cc2)cc1OCC` as the compound, how does the “activity change, positive = activation” value read?
Answer: inactive: 3.49%

Question: With `CCOc1ccc(-c2nc(SCC(=O)Nc3ccc4c(c3)OCCO4)c(-c3ccc(F)cc3)[nH]2)cc1` as the compound, how does the “activity change, positive = activation” value read?
Answer: inactive: -13.9%

Question: Which “activity change, positive = activation” value does the source give for `CCC(=O)OCCCNc1nc(-c2ccc(Cl)cc2)nc2ccccc12` here?
Answer: inactive: -7.98%

Question: With `CC(=O)N1CCCc2cc(S(=O)(=O)N3CCN(c4ccc(F)cc4)CC3)ccc21` as the compound, how does the “activity change, positive = activation” value read?
Answer: inactive: -36.3%

Question: For `CN[C@H]1CCc2cc(OC)c(OC)c(OC)c2-c2ccc(OC)c(=O)cc21`, which “activity change, positive = activation” value is on record?
Answer: inactive: -30.9%

Reference: PubChem BioAssay AID1508624 (National Center for Advancing Translational Sciences (NCATS), 2021)
